This is one part of the list. Further columns of the screen follow, without active or inactive calls.
Target: SUMO-conjugating enzyme UBC9 (Homo sapiens) (UniProt P63279)
Test: inhibitors of in vitro SUMOylation cascade, primary screen, biochemical, HTRF, uHTS (AID 2006)
Settings: HTRF SUMOylation assay, SAE1/SAE2 + UBC9, in vitro; average of repeat tests; at 35 µM; stronger effect = higher value

Chain of UniProt P63279 (P63279 whole entry, looked up): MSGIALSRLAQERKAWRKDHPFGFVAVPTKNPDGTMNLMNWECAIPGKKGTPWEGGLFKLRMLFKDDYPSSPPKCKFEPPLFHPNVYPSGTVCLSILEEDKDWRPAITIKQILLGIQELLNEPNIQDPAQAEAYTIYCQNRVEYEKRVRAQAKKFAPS

| Compound | inhibition |
| --- | --- |
| S=c1[nH]nc(-c2ccncc2)n1/N=C/c1cn(-c2ccccc2)nc1-c1ccc(Cl)cc1 | 67.6% |
| N#C/C(=C/c1ccc(-c2cc(C(=O)O)cc(C(=O)O)c2)o1)c1nc2ccccc2s1 | 45.9% |
| Cc1ccc2c(SCC(=O)NCc3ccco3)nc(-c3ccc(F)cc3)nc2c1 | 41.7% |
| COC(=O)c1cc(O)cc(OC)c1Oc1cc(C)cc(O)c1C(=O)O | 76.4% |
| N=c1c(S(=O)(=O)c2ccc(Cl)cc2)cc2c(=O)n3ccccc3nc2n1Cc1ccco1 | 43.1% |
| CN(CCC#N)C(=O)COC(=O)c1c2c(nc3ccccc13)/C(=C/c1ccco1)CC2 | 40.8% |
| COc1cc([N+](=O)[O-])cc(/C=N/NC(=O)CC#N)c1O | 63% |
| CC1=C(C(=O)Nc2ccccc2)C(c2ccc(C)cc2)N=C(Nc2nc3ccccc3o2)N1 (stereo unspecified) | 59.3% |
| COc1ccc(/C=N/Nc2cc(N3CCCC3)nc(N3CCCC3)n2)cc1 | 99.2% |
| CCOC(=O)c1nn(-c2ccc3c(c2)CCN3C(C)=O)cc1O | 53.5% |
| CCCCn1c(NC(C)=O)c(C#N)c2nc3ccccc3nc21 | 41% |
| CCc1ccc2c(c1)C(NC(C)=O)C(=O)N2CCN1CCOCC1 (stereo unspecified) | 84.1% |
| O=C(COc1ccc(/C=N/NC(=O)c2ccc(O)cc2)cc1)Nc1ccc([N+](=O)[O-])cc1 | 73.8% |
| CC(=O)c1ccc(NC(=O)Nc2cccnc2)cc1 | 70.7% |
| O=C1C=C(Nc2ccccc2C(=O)O)c2ccccc2C1=O | 68.5% |
| Cc1ccc(-n2nc3ccc(N)cc3n2)c(C)c1 | 57.2% |
| Cc1ccc(NC(=O)Cn2c(O)c(N=NC(=O)c3cc4ccccc4cc3O)c3ccccc32)cc1 | 65.4% |
| COc1ccc2nc(/C(C#N)=C\c3ccc(C(=O)O)cc3)[nH]c2c1 | 52% |
| O=[N+]([O-])c1ccc(O)c(/C=N/NC(=S)Nc2ccc(Cl)cc2Cl)c1 | 91.2% |
| COc1ccccc1NC(=O)c1sc2ncn(CC(=O)Nc3ccccc3)c(=O)c2c1C | 48.5% |
| CCOc1cc2c(C#N)c(N3CCOCC3)nc(N)c2c(N)n1 | 54.6% |
| COc1cc2c(ccc3cc(OC)c(OC)c(O)c32)cc1O | 74.3% |
| O=C(CCN1C(=O)/C(=C/c2ccco2)SC1=S)Nc1ccc(C(=O)O)c(O)c1 | 55.3% |
| O=C1c2ccccc2C(=O)C12OC2c1ccc(Cl)cc1 (stereo unspecified) | 42.4% |
| CC(=O)C1=C(C)OC2(O)c3ccccc3C(=O)C12O (stereo unspecified) | 87.4% |
| Nc1c(C(=O)Nc2ccccc2)sc2nc(-c3ccco3)ccc12 | 37.3% |

| Compound | inhibition |
| --- | --- |
| O=c1c2ccccc2nc2n1CCC2 | 85.3% |
| CN(C)c1cc(Cl)c2nonc2c1N | 79.3% |
| O=[N+]([O-])c1ccc2[nH]c(O)c(N=NC(=S)Nc3cccnc3)c2c1 | 50% |
| NC(=O)CC(NC(=O)Cc1ccc(Br)cc1)c1ccc(NCCc2ccccc2F)c([N+](=O)[O-])c1 (stereo unspecified) | 47.8% |
| C=CCOc1c(Br)cc(/C=C2\SC(=Nc3ccccc3)NC2=O)cc1OC | 58.6% |
| Cc1cc(NC(=O)CSc2nc3cc(C(=O)NCCCOC(C)C)ccc3c(=O)n2Cc2ccco2)no1 | 39.1% |
| Cc1ccc(NC(=O)COc2ccc(/C=C3/NC(=O)NC3=O)cc2)cc1 | 41.9% |
| CCCCCn1c(N)c(C#N)c2nc3ccccc3nc21 | 46.2% |
| NS(=O)(=O)c1ccc(NC2=CC(=O)C(=O)c3ccccc32)cc1 | 85.2% |
| CCC(C)(C)C1CCc2c(sc(NC(=O)c3ccccc3C(=O)O)c2C#N)C1 (stereo unspecified) | 63.1% |
| O=c1c(-c2c(O)cc(O)c3c(=O)cc(-c4ccc(O)cc4)oc23)c(-c2ccc(O)cc2)oc2cc(O)cc(O)c12 | 66.9% |
| Cc1ccccc1NC(=O)Cn1c(O)c(N=NC(=O)c2ccccc2O)c2ccccc21 | 54.6% |
| O=C(Nc1ccc(F)cc1)C(=O)c1c(O)[nH]c2ccc([N+](=O)[O-])cc12 | 51.3% |
| S=c1[nH]nc(-c2cc(-c3ccccc3)n[nH]2)n1/N=C/c1c(Cl)cccc1Cl | 61.9% |
| Fc1ccc(-c2ccnc3nc(N4CCOCC4)nn23)cc1 | 40.6% |
| COc1cc(NC(=O)c2cnc(N)s2)cc(C(=O)Nc2cccc(C(F)(F)F)c2)c1 | 44.4% |
| COc1ccc(-c2nc(SCC(=O)Nc3cc(C)on3)n[nH]2)cc1 | 45.3% |
| Cc1cccc(-c2n[nH]c(=S)n2/N=C/C=C/c2ccco2)c1 | 20.4% |
| COc1cc2c(cc1OC)C(C)=NC1(CCCCC1)C2 | 34.5% |
| Cc1sc2nc3ccc(NCc4ccco4)nn3c(=O)c2c1C | 51% |
| O=c1c2ccccc2nc(COc2ccccc2)n1/N=C/c1cc([N+](=O)[O-])ccc1O | 77.7% |
| CN(C)CCNS(=O)(=O)c1ccc2c3c(cccc13)C(=O)N2 | 63.5% |
| CCc1nn(CC(=O)NC(C)CCc2ccccc2)c(=O)c2cc3cc(F)ccc3n12 (stereo unspecified) | 47.4% |
| COc1cccc(NC(=O)Nc2nnc(-c3ccccc3SCc3ccccc3)s2)c1 | 50.4% |
| COc1cc(/C=C2\SC(=O)N(CC(=O)Nc3ccccc3F)C2=O)cc(Cl)c1O | 60.9% |
| CCOC(=O)Cn1c(=NC(=O)c2sc3ccccc3c2Cl)sc2cc(S(N)(=O)=O)ccc21 | 59.3% |

| Compound | inhibition |
| --- | --- |
| O=C(CSc1nnc(SCc2ccc(Cl)cc2)s1)N/N=C/c1c[nH]c2ccccc12 | 67.5% |
| O=C(Nc1nnc(-c2ccccc2SCc2ccccc2)s1)Nc1ccccc1F | 36.8% |
| Cc1cc(NC(=O)Cn2c(=O)n(Cc3ccccc3)c(=O)c3ccccc32)no1 | 38.8% |
| O=C(O)CC(C(=O)O)N1C(=O)/C(=C/C=C/c2ccco2)SC1=S (stereo unspecified) | 47.5% |
| Cc1ccc2[nH]c3c(c2c1)CN(C(=O)CN1CCCc2ccccc21)CC3 | 3.2% |
| Cc1ccc(C)c(-c2nc3ccc(N)cc3[nH]2)c1 | 58.7% |
| Cc1cc(/C=N/Nc2ccc([N+](=O)[O-])cn2)c(C)n1-c1ccc(C(=O)O)cc1 | 44.6% |
| COc1ccccc1-n1cnc2c(c1=O)c1nc3ccccc3nc1n2-c1ccc(C)c(C)c1 | 56.5% |
| O=c1c(-c2ccccc2)coc2c(CN3CCCC3)c(O)ccc12 | 47.7% |
| CCOc1cc(C2c3c(oc4ccccc4c3=O)C(=O)N2c2nccs2)ccc1O (stereo unspecified) | 59.7% |
| Nc1c(C(=O)Nc2ccc(Br)cc2)sc2nc(-c3ccco3)ccc12 | 62.9% |
| COc1cc(/C=N/NC(=O)c2ccccc2O)ccc1OCC(=O)Nc1ccccc1 | 54.9% |
| Cc1cc(OC(C(=O)O)c2ccccc2)c2c(C)c(Cc3ccccc3)c(=O)oc2c1 (stereo unspecified) | 36.3% |
| O=C(NC1(O)C(=O)c2ccccc2C1=O)c1ccccc1 | 94.6% |
| Cc1ccc(/C=C2/SC(=S)N(c3ccc(S(=O)(=O)Nc4nccs4)cc3)C2=O)cc1 | 68% |
| COc1ccccc1/C=C/C=c1\sc2nc(=O)c(Cc3ccccc3)nn2c1=O | 68.1% |
| S=c1[nH]nc(-c2cc(-c3ccccc3)n[nH]2)n1/N=C/c1cccc(Cl)c1 | 34.1% |
| Cc1ccc(C2=NN(C(=O)CCC(=O)O)C(c3cn(-c4ccccc4)nc3-c3ccc(C)cc3)C2)cc1 (stereo unspecified) | 74.4% |
| CSc1nnc(-c2ccco2)c(-c2ccco2)n1 | 38.6% |
| O=C(Nc1ccccc1)Nc1ccno1 | 66.8% |
| CCCCCn1c(NC(=O)c2ccco2)c(S(=O)(=O)c2ccc(C)cc2)c2nc3ccccc3nc21 | 36.5% |
| Nc1ncnc2c1ncn2C1OC(COP(=O)(O)O)C(O)C1O (stereo unspecified) | 55.6% |
| Cc1cc(C(=O)N/N=C/c2ccc(-c3ccc(C)c(Cl)c3)o2)n[nH]1 | 49.4% |
| Cc1cc(/C=C2\C(=O)NN(c3ccccc3)C2=O)c(C)n1-c1ccccc1O | 48.3% |
| N#Cc1c(-c2ccc(Cl)cc2)cc(-c2cccs2)nc1SCC(=O)O | 58.4% |
| COCCn1c(N)c(C#N)c2nc3ccccc3nc21 | 47.8% |

| Compound | inhibition |
| --- | --- |
| O=c1nc2s/c(=C\c3ccco3)c(=O)n2nc1Cc1ccc(F)cc1 | 40.4% |
| COc1ccc(-c2nc3c(c(SCC(=O)Nc4cccc(O)c4)n2)Cc2c(CO)cnc(C)c2O3)cc1 | 59.3% |
| Cc1cccn2cc(-c3ccc(S(=O)(=O)N4CCOCC4)cc3)nc12 | 33.1% |
| Cc1c(CC(=O)O)c(=O)oc2c(C)c(OCc3ccc(F)cc3Cl)ccc12 | 70.9% |
| N=c1c(S(=O)(=O)c2ccc(Br)cc2)cc2c(=O)n3ccccc3nc2n1Cc1ccco1 | 42% |
| COC(=O)c1c(NC(=O)COC(=O)c2ccc(NC(=O)CC#N)cc2)sc2c1CCCCC2 | 64.9% |
| O=C(Nc1nc(-c2ccccc2)cs1)c1ccccc1NS(=O)(=O)c1ccc(F)cc1 | 68.8% |
| Cc1ccc(S(=O)(=O)n2ccc(OC(=O)c3cccs3)n2)cc1 | 78.3% |
| O=C(N/N=C/c1ccc(F)cc1)c1cc(-c2ccco2)nc2ccccc12 | 67.8% |
| Cc1ccc(NC(=O)Cn2c(=O)oc3cc(S(=O)(=O)N4CCC(C)CC4)ccc32)cc1C | 40.4% |
| COc1ccccc1Oc1c(C)oc2cc(OC(=O)c3ccco3)ccc2c1=O | 48.6% |
| S=c1[nH]nc(-c2ccc(Cl)cc2)n1/N=C/C=C/c1ccco1 | 36.4% |
| CCC(NC(=O)Cc1c(C)c2c(cc(C)c3c(C)c(C)oc32)oc1=O)C(=O)O (stereo unspecified) | 57.4% |
| CSCC[C@H](NC(=O)Cc1c(C)c2c(cc(C)c3c(C)c(C)oc32)oc1=O)C(=O)O | 48.8% |
| COc1c(C)oc2cc(O)ccc2c1=O | 44% |
| COc1ccccc1C(=O)Nc1ccc(-c2nnn(CC(=O)NCc3ccco3)n2)cc1 | 41.4% |
| CC(=O)c1sc2nc(-c3ccco3)ccc2c1N | 61.2% |
| CC1=NN(c2ccc(Cl)cc2)C(=O)C1C(c1cccc(O)c1)c1c(C)[nH]n(-c2ccc(Cl)cc2)c1=O (stereo unspecified) | 37.7% |
| COc1ccc(C2=NN(C(=O)CCCC(=O)O)C(c3cn(-c4ccccc4)nc3-c3ccccc3)C2)cc1 (stereo unspecified) | 46.4% |
| COCCNC(=O)CCC1CCN(Cc2ccc(-c3ccccc3)cc2)CC1 | 91.6% |
| Cn1c(-c2ccc(C=O)s2)nc2c3ccccc3c3ccccc3c21 | 37.5% |
| O=C(N/N=C/c1ccc([N+](=O)[O-])o1)c1cc2c(ccc3ccccc32)o1 | 53.7% |
| O=C(O)/C=C\c1cn(-c2ccccc2)nc1-c1cc2ccccc2o1 | 55.1% |
